Data as given in paper PMC7819943, “Rice protein-binding microarrays: a tool to detect cis-acting elements near promoter regions in rice”.
Some of the results follow.

molecular target: T1, OsWOX13 (Oryza sativa, UniProt Q5QMM3 1-267); experiment: protein-binding microarray (RPBM); PBS, 2% BSA, 51.3 ng/ul salmon testes DNA, 50 uM zinc acetate, 200 nM TF, 25 C, 1 h; high values mean tight binding; settings: protein: recombinant; tags: N-terminal polyhistidine and DsRed monomer fusion (pET32a); label: CyDye5-dUTP incorporated in the synthesized complementary strand; 3' TTTTT single-stranded linker to array surface; dsDNA, one strand shown
T1 sequence: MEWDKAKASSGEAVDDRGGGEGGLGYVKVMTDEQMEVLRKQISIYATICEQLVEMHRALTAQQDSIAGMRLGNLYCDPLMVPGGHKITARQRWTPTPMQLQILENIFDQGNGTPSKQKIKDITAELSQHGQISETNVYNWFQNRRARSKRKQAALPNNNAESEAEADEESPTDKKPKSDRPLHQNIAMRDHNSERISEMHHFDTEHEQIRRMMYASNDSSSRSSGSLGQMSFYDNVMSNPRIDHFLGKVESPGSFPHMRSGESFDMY
How it was run: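 Transcription factors were each fused at the N-terminus to a polyhistidine tag plus DsRed and expressed in E. coli BL21-CodonPlus before Ni–NTA purification. Binding to a double-stranded custom Agilent array was carried out with 200 nM protein at 25 °C for 1 h in PBS, 2% BSA, salmon testes DNA and 50 µM zinc acetate. The binding signal is per-feature fluorescence intensity, in arbitrary units, on an Axon 4000B scanner.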

Sequence	binding signal
AACCTGCTCCTGTCAAATCACACATTAACCTTCACCAACCCGGAGTCACCTAGTGCAG	3350 fluorescence intensity (a.u.)
TCACCAAGACCATAAATTGACACATCGCATGCCACCAGGGCGGAGTCACCTAGTGCAG	10800 fluorescence intensity (a.u.)
TCCATAATCAGTGCCAATTACCCTAATGCTGAGAAAAGATCGGAGTCACCTAGTGCAG	22800 fluorescence intensity (a.u.)
ATATTGATAGACGGACAAATCAATAGACATGTTGGCTGAACGGAGTCACCTAGTGCAG	48300 fluorescence intensity (a.u.)
GATTAATTAATCAAGACACACTGATAGTGATCCAACCGTTCGGAGTCACCTAGTGCAG	34600 fluorescence intensity (a.u.)
GGGGATTGAGACTCTGATGAGCAGAACTGAGGTGTGGCAACGGAGTCACCTAGTGCAG	27100 fluorescence intensity (a.u.)
GTGACACCGTTATATGATGATTAATGATACGATAATAAGTCGGAGTCACCTAGTGCAG	5670 fluorescence intensity (a.u.)
GGGCGGGCGGGCTCGAGGTTGTGGTGGGGCGTGTGGCAGGCGGAGTCACCTAGTGCAG	3240 fluorescence intensity (a.u.)
AGAAAAGATGAAAGGTCTAGATTGATTTTACTACCAGTAGCGGAGTCACCTAGTGCAG	6660 fluorescence intensity (a.u.)
CTCCCTGGCTCTGATTAATTTCTCCCCAACCCCACTCACTCGGAGTCACCTAGTGCAG	6830 fluorescence intensity (a.u.)
TATTCTCATGATTTATATGAACACAAACCAATGGCCACATCGGAGTCACCTAGTGCAG	5710 fluorescence intensity (a.u.)
ACCAATTACACCCTAACATGCACACATTATCCCATACTGCCGGAGTCACCTAGTGCAG	5580 fluorescence intensity (a.u.)
CAAAATTATTGGTTGTGTCAAAGCCCAGTTCCGGTTTTGACGGAGTCACCTAGTGCAG	16300 fluorescence intensity (a.u.)
TTGGCTATTAATTTGGCTATAGATGATTTGGAGCTAGTAGCGGAGTCACCTAGTGCAG	6500 fluorescence intensity (a.u.)
ATCTCACTCTCCAATTTAAATTTTGGTAATTTTGAGCAAACGGAGTCACCTAGTGCAG	9640 fluorescence intensity (a.u.)
AATAATTAATTGGATATGATGTACTCTATATTTCTTATATCGGAGTCACCTAGTGCAG	51400 fluorescence intensity (a.u.)
TACTTTCGTGATTATGATATTATATTAGAGTCGTTTAGAACGGAGTCACCTAGTGCAG	7640 fluorescence intensity (a.u.)
AATTAAGTATGATTGTGCATTACGGGCACCTAAAGTTGTGCGGAGTCACCTAGTGCAG	6430 fluorescence intensity (a.u.)
GCTATGATTTGACAATGTGATGGTACAGTAAACATTTGCTCGGAGTCACCTAGTGCAG	31400 fluorescence intensity (a.u.)
GATCAATCATCTTAAACTTTCATATTATCAGCTAGTAGATCGGAGTCACCTAGTGCAG	30900 fluorescence intensity (a.u.)
TTAGATTGAACCGCTTCAAACCAGTGGTTCAACACTTTAACGGAGTCACCTAGTGCAG	27000 fluorescence intensity (a.u.)

Sequence	binding signal
AATGACAACTAATTTTAAGATGGAGGGAGTATGTTAGTATCGGAGTCACCTAGTGCAG	8570 fluorescence intensity (a.u.)
GTGATTACGATCAGGCAGAGTGGTACACAGGTACTGTAGTCGGAGTCACCTAGTGCAG	4370 fluorescence intensity (a.u.)
GTATCAGGCCATAATTAGTTCATTACCATACAATTACCATCGGAGTCACCTAGTGCAG	6390 fluorescence intensity (a.u.)
ATTAATCATCATTTATCTCATTCCGTTGTTAAAACCAAATCGGAGTCACCTAGTGCAG	3710 fluorescence intensity (a.u.)
ATTATTGAACGAATGATTATCGTAGATTATACATCTAGCCCGGAGTCACCTAGTGCAG	28400 fluorescence intensity (a.u.)
TTGATTCCGATAAATTTAATTGGTTTATGTAAACTTAAGCCGGAGTCACCTAGTGCAG	32400 fluorescence intensity (a.u.)
GTCTGAGTTAATTTATGCTTTTCTAATTACAATAGCATAACGGAGTCACCTAGTGCAG	13500 fluorescence intensity (a.u.)
AGTTTTGATAATCAAATTACATTTTATTTATACATACTTACGGAGTCACCTAGTGCAG	14400 fluorescence intensity (a.u.)
GAATTCAGGATGATTGAAAACGTTTGCACTTGAAACATTTCGGAGTCACCTAGTGCAG	18100 fluorescence intensity (a.u.)
GTAACAGAACCAGTGATCTGATAGACAGATATCCAGCAGACGGAGTCACCTAGTGCAG	5870 fluorescence intensity (a.u.)
AATTAATCAATGCGCTAATTACTTATCTTGTTATAGCTGACGGAGTCACCTAGTGCAG	48800 fluorescence intensity (a.u.)
ATTTAACAATGGATTAATTAGACTTAATAAATCCATCTCGCGGAGTCACCTAGTGCAG	18700 fluorescence intensity (a.u.)
ACCAACTATTGCGCTGATTGATTAGTCGTGTGCTTGTTTGCGGAGTCACCTAGTGCAG	51300 fluorescence intensity (a.u.)
TATAAATTTTAGCTATTTATAAATTGTATTCCTAGTTGAACGGAGTCACCTAGTGCAG	6440 fluorescence intensity (a.u.)
GTCATTGATTGATCAAGGGATCAATGCAAAACAACGCATTCGGAGTCACCTAGTGCAG	20300 fluorescence intensity (a.u.)
CACCCAATTATCATCATCCTCAAATCAATTGAAAACTTGCCGGAGTCACCTAGTGCAG	18100 fluorescence intensity (a.u.)
TTTGTATCAAATTGGAACTAGTAACCAATCCCAATTTAGACGGAGTCACCTAGTGCAG	3450 fluorescence intensity (a.u.)
CATCTCCAAATTGAACCAATCCCAGAAAATTAATCGGTCACGGAGTCACCTAGTGCAG	11400 fluorescence intensity (a.u.)
AATAGATGGATGGATGGATGGATAGGTACTCCAGATAGATCGGAGTCACCTAGTGCAG	6110 fluorescence intensity (a.u.)
CCATAGAGTCACTGATATAATTATATGAACAGATAGTGTCCGGAGTCACCTAGTGCAG	6940 fluorescence intensity (a.u.)
GTGACAGTTAAATACTAAATGACCGGTGTTCGGAAAAGAACGGAGTCACCTAGTGCAG	3900 fluorescence intensity (a.u.)
